# Residue numbers refer to the chain shown, from its start. This is one part of the list.
# T1: RBFOX1 RRM RbFoxmut (Fox-RRM*) (Homo sapiens, UniProt Q9NWB1 109-208, R118D;E147R;N151S;E152T)
# T1 sequence: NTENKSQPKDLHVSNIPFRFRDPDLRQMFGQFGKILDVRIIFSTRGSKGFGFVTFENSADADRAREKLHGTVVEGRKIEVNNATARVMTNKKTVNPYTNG
# B1: UGGGUCA (DNA:RNA)
# RNA: GGGAGACCGGAAUUCAGAUUGUCCUGGGUCAUUAAAUCCCGUCGUAGCCACCA
# DNA 1: CAATCTGAATTCCGGTCTCCC
# DNA 2: TGGTGGCTACGACGGGATT
# B2: AUCUGUA (DNA:RNA)
# RNA: B1 RNA with U25A, G26U, G27C, G28U, U29G, C30U
# DNA 1: CAATCTGAATTCCGGTCTCCC
# DNA 2: TGGTGGCTACGACGGGATT
# B3: GUACUCA (DNA:RNA)
# RNA: B1 RNA with U25G, G26U, G27A, G28C
# DNA 1: CAATCTGAATTCCGGTCTCCC
# DNA 2: TGGTGGCTACGACGGGATT
# B4: CUCAAUG (DNA:RNA)
# RNA: GGGAGACCGGAAUUCAGAUUGUCCCUCAAUGUUAAAUCCCGUCGUAGCCACCA
# DNA 1: CAATCTGAATTCCGGTCTCCC
# DNA 2: TGGTGGCTACGACGGGATT
# B5: AUGUGAA (DNA:RNA)
# RNA: B1 RNA with U25A, G26U, G28U, U29G, C30A
# DNA 1: CAATCTGAATTCCGGTCTCCC
# DNA 2: TGGTGGCTACGACGGGATT
# B6: CUGGAUG (DNA:RNA)
# RNA: B4 RNA with C27G, A28G
# DNA 1: CAATCTGAATTCCGGTCTCCC
# DNA 2: TGGTGGCTACGACGGGATT
# B7: GCGCUCA (DNA:RNA)
# RNA: B1 RNA with U25G, G26C, G28C
# DNA 1: CAATCTGAATTCCGGTCTCCC
# DNA 2: TGGTGGCTACGACGGGATT
# B8: GUUAUUU (DNA:RNA)
# RNA: B4 RNA with C25G, C27U, A29U, G31U
# DNA 1: CAATCTGAATTCCGGTCTCCC
# DNA 2: TGGTGGCTACGACGGGATT
# B9: AUGAGGG (DNA:RNA)
# RNA: B4 RNA with C25A, C27G, A29G, U30G
# DNA 1: CAATCTGAATTCCGGTCTCCC
# DNA 2: TGGTGGCTACGACGGGATT
# B10: GGAUUGG (DNA:RNA)
# RNA: B1 RNA with U25G, G27A, G28U, C30G, A31G
# DNA 1: CAATCTGAATTCCGGTCTCCC
# DNA 2: TGGTGGCTACGACGGGATT
# B11: UUGAGAC (DNA:RNA)
# RNA: B4 RNA with C25U, C27G, A29G, U30A, G31C
# DNA 1: CAATCTGAATTCCGGTCTCCC
# DNA 2: TGGTGGCTACGACGGGATT
# B12: AUAUAGC (DNA:RNA)
# RNA: B4 RNA with C25A, C27A, A28U, U30G, G31C
# DNA 1: CAATCTGAATTCCGGTCTCCC
# DNA 2: TGGTGGCTACGACGGGATT
# B13: GGGCUUC (DNA:RNA)
# RNA: B1 RNA with U25G, G28C, C30U, A31C
# DNA 1: CAATCTGAATTCCGGTCTCCC
# DNA 2: TGGTGGCTACGACGGGATT
# B14: AAUCCAA (DNA:RNA)
# RNA: B1 RNA with U25A, G26A, G27U, G28C, U29C, C30A
# DNA 1: CAATCTGAATTCCGGTCTCCC
# DNA 2: TGGTGGCTACGACGGGATT
# B15: GUUUCUA (DNA:RNA)
# RNA: B4 RNA with C25G, C27U, A28U, A29C, G31A
# DNA 1: CAATCTGAATTCCGGTCTCCC
# DNA 2: TGGTGGCTACGACGGGATT
# B16: CCUCACA (DNA:RNA)
# RNA: B4 RNA with U26C, C27U, A28C, U30C, G31A
# DNA 1: CAATCTGAATTCCGGTCTCCC
# DNA 2: TGGTGGCTACGACGGGATT
# B17: UCACGGA (DNA:RNA)
# RNA: B1 RNA with G26C, G27A, G28C, U29G, C30G
# DNA 1: CAATCTGAATTCCGGTCTCCC
# DNA 2: TGGTGGCTACGACGGGATT
# B18: ACGCCCU (DNA:RNA)
# RNA: B1 RNA with U25A, G26C, G28C, U29C, A31U
# DNA 1: CAATCTGAATTCCGGTCTCCC
# DNA 2: TGGTGGCTACGACGGGATT
# B19: AAGGGAC (DNA:RNA)
# RNA: B1 RNA with U25A, G26A, U29G, C30A, A31C
# DNA 1: CAATCTGAATTCCGGTCTCCC
# DNA 2: TGGTGGCTACGACGGGATT
# B20: AGGUAUU (DNA:RNA)
# RNA: B4 RNA with C25A, U26G, C27G, A28U, G31U
# DNA 1: CAATCTGAATTCCGGTCTCCC
# DNA 2: TGGTGGCTACGACGGGATT
# B21: UACAUGU (DNA:RNA)
# RNA: B4 RNA with C25U, U26A, A29U, U30G, G31U
# DNA 1: CAATCTGAATTCCGGTCTCCC
# DNA 2: TGGTGGCTACGACGGGATT
# B22: CGUAGUG (DNA:RNA)
# RNA: B4 RNA with U26G, C27U, A29G
# DNA 1: CAATCTGAATTCCGGTCTCCC
# DNA 2: TGGTGGCTACGACGGGATT
# B23: GGACGUG (DNA:RNA)
# RNA: B4 RNA with C25G, U26G, C27A, A28C, A29G
# DNA 1: CAATCTGAATTCCGGTCTCCC
# DNA 2: TGGTGGCTACGACGGGATT
# B24: CAUCCCC (DNA:RNA)
# RNA: B4 RNA with U26A, C27U, A28C, A29C, U30C, G31C
# DNA 1: CAATCTGAATTCCGGTCTCCC
# DNA 2: TGGTGGCTACGACGGGATT
# B25: GUUGACU (DNA:RNA)
# RNA: B4 RNA with C25G, C27U, A28G, U30C, G31U
# DNA 1: CAATCTGAATTCCGGTCTCCC
# DNA 2: TGGTGGCTACGACGGGATT
# B26: CUUCAUA (DNA:RNA)
# RNA: B4 RNA with C27U, A28C, G31A
# DNA 1: CAATCTGAATTCCGGTCTCCC
# DNA 2: TGGTGGCTACGACGGGATT
# B27: GGGCUCA (DNA:RNA)
# RNA: B1 RNA with U25G, G28C
# DNA 1: CAATCTGAATTCCGGTCTCCC
# DNA 2: TGGTGGCTACGACGGGATT
# B28: UGCCUGC (DNA:RNA)
# RNA: B1 RNA with G27C, G28C, C30G, A31C
# DNA 1: CAATCTGAATTCCGGTCTCCC
# DNA 2: TGGTGGCTACGACGGGATT
# B29: AGCAGCA (DNA:RNA)
# RNA: B1 RNA with U25A, G27C, G28A, U29G
# DNA 1: CAATCTGAATTCCGGTCTCCC
# DNA 2: TGGTGGCTACGACGGGATT
# B30: AUGAUAU (DNA:RNA)
# RNA: B4 RNA with C25A, C27G, A29U, U30A, G31U
# DNA 1: CAATCTGAATTCCGGTCTCCC
# DNA 2: TGGTGGCTACGACGGGATT
# B31: UUCCAAG (DNA:RNA)
# RNA: B4 RNA with C25U, A28C, U30A
# DNA 1: CAATCTGAATTCCGGTCTCCC
# DNA 2: TGGTGGCTACGACGGGATT
# Target: T1, RBFOX1 RRM RbFoxmut (Fox-RRM*)
# Assay: EMSA; HiTS-Eq, 1 nM pool, 10 min; buffer printed only for the single-RNA assays: 10 mM Tris pH 7.5, 150 mM NaCl, 3.4 mM EDTA, 0.001% NP-40, 30 C
# Conditions: tags: His6 N-terminal (pET28a); label: 5' 32P
# Method in brief: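 A pool of RNA with 7 randomized nucleotides, 5′-radiolabelled and with DNA-annealed flanks, was equilibrated at 1 nM for 10 min in 50 µL with purified RbFox RRM, wild type or mutant, across increasing protein concentrations. Free RNA was separated by 8% native PAGE, excised, reverse-transcribed, barcoded by PCR and sequenced. Relative association constants were obtained from read-count changes of each RNA species versus the control reaction and normalised to the cognate motif.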
row,Binder,binding signal
1,B1,0.15 KA relative to UGCAUGU
2,B2,0.175 KA relative to UGCAUGU
3,B3,0.095 KA relative to UGCAUGU
4,B4,0.105 KA relative to UGCAUGU
5,B5,0.118 KA relative to UGCAUGU
6,B6,0.646 KA relative to UGCAUGU
7,B7,0.0581 KA relative to UGCAUGU
8,B8,0.117 KA relative to UGCAUGU
9,B9,0.0929 KA relative to UGCAUGU
10,B10,0.219 KA relative to UGCAUGU
11,B11,0.0589 KA relative to UGCAUGU
12,B12,0.12 KA relative to UGCAUGU
13,B13,0.128 KA relative to UGCAUGU
14,B14,0.049 KA relative to UGCAUGU
15,B15,0.146 KA relative to UGCAUGU
16,B16,0.108 KA relative to UGCAUGU

row,Binder,binding signal
1,B17,0.0652 KA relative to UGCAUGU
2,B18,0.0755 KA relative to UGCAUGU
3,B19,0.0733 KA relative to UGCAUGU
4,B20,0.106 KA relative to UGCAUGU
5,B21,0.0896 KA relative to UGCAUGU
6,B22,0.147 KA relative to UGCAUGU
7,B23,0.162 KA relative to UGCAUGU
8,B24,0.0968 KA relative to UGCAUGU
9,B25,0.07 KA relative to UGCAUGU
10,B26,0.153 KA relative to UGCAUGU
11,B27,0.113 KA relative to UGCAUGU
12,B28,0.153 KA relative to UGCAUGU
13,B29,0.14 KA relative to UGCAUGU
14,B30,0.126 KA relative to UGCAUGU
15,B31,0.0952 KA relative to UGCAUGU

# From article PMC9911399, “Two distinct binding modes provide the RNA-binding protein RbFox with extraordinary sequence specificity”
